T1: RBFOX1 RRM RbFoxmut (Fox-RRM*) (Homo sapiens, UniProt Q9NWB1 109-208, R118D;E147R;N151S;E152T)
T1 sequence: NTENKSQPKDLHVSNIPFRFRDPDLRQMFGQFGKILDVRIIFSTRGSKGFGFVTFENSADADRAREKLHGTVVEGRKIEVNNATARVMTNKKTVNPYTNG

B1: AAUGGUC (DNA:RNA)
RNA: GGGAGACCGGAAUUCAGAUUGUCCAAUGGUCUUAAAUCCCGUCGUAGCCACCA
DNA 1: CAATCTGAATTCCGGTCTCCC
DNA 2: TGGTGGCTACGACGGGATT
B2: AAUUGUC (DNA:RNA)
RNA: B1 RNA with G28U
DNA 1: CAATCTGAATTCCGGTCTCCC
DNA 2: TGGTGGCTACGACGGGATT
B3: GAAGUUU (DNA:RNA)
RNA: B1 RNA with A25G, U27A, G29U, C31U
DNA 1: CAATCTGAATTCCGGTCTCCC
DNA 2: TGGTGGCTACGACGGGATT
B4: GAGAUUA (DNA:RNA)
RNA: B1 RNA with A25G, U27G, G28A, G29U, C31A
DNA 1: CAATCTGAATTCCGGTCTCCC
DNA 2: TGGTGGCTACGACGGGATT
B5: CUUCUCA (DNA:RNA)
RNA: B1 RNA with A25C, A26U, G28C, G29U, U30C, C31A
DNA 1: CAATCTGAATTCCGGTCTCCC
DNA 2: TGGTGGCTACGACGGGATT
B6: GGUUGGU (DNA:RNA)
RNA: B1 RNA with A25G, A26G, G28U, U30G, C31U
DNA 1: CAATCTGAATTCCGGTCTCCC
DNA 2: TGGTGGCTACGACGGGATT
B7: CCGGUCG (DNA:RNA)
RNA: B1 RNA with A25C, A26C, U27G, G29U, U30C, C31G
DNA 1: CAATCTGAATTCCGGTCTCCC
DNA 2: TGGTGGCTACGACGGGATT
B8: ACAAAGG (DNA:RNA)
RNA: B1 RNA with A26C, U27A, G28A, G29A, U30G, C31G
DNA 1: CAATCTGAATTCCGGTCTCCC
DNA 2: TGGTGGCTACGACGGGATT
B9: UAUGCGC (DNA:RNA)
RNA: B1 RNA with A25U, G29C, U30G
DNA 1: CAATCTGAATTCCGGTCTCCC
DNA 2: TGGTGGCTACGACGGGATT
B10: GAUGUAU (DNA:RNA)
RNA: B1 RNA with A25G, G29U, U30A, C31U
DNA 1: CAATCTGAATTCCGGTCTCCC
DNA 2: TGGTGGCTACGACGGGATT
B11: UAGGAGC (DNA:RNA)
RNA: B1 RNA with A25U, U27G, G29A, U30G
DNA 1: CAATCTGAATTCCGGTCTCCC
DNA 2: TGGTGGCTACGACGGGATT
B12: UCAAUCC (DNA:RNA)
RNA: B1 RNA with A25U, A26C, U27A, G28A, G29U, U30C
DNA 1: CAATCTGAATTCCGGTCTCCC
DNA 2: TGGTGGCTACGACGGGATT
B13: UUAAAGC (DNA:RNA)
RNA: B1 RNA with A25U, A26U, U27A, G28A, G29A, U30G
DNA 1: CAATCTGAATTCCGGTCTCCC
DNA 2: TGGTGGCTACGACGGGATT
B14: CCACUCG (DNA:RNA)
RNA: GGGAGACCGGAAUUCAGAUUGUCCCCACUCGUUAAAUCCCGUCGUAGCCACCA
DNA 1: CAATCTGAATTCCGGTCTCCC
DNA 2: TGGTGGCTACGACGGGATT
B15: ACGUCCC (DNA:RNA)
RNA: B1 RNA with A26C, U27G, G28U, G29C, U30C
DNA 1: CAATCTGAATTCCGGTCTCCC
DNA 2: TGGTGGCTACGACGGGATT
B16: AUUUAAA (DNA:RNA)
RNA: B1 RNA with A26U, G28U, G29A, U30A, C31A
DNA 1: CAATCTGAATTCCGGTCTCCC
DNA 2: TGGTGGCTACGACGGGATT
B17: UCCCCGA (DNA:RNA)
RNA: B14 RNA with C25U, A27C, U29C, C30G, G31A
DNA 1: CAATCTGAATTCCGGTCTCCC
DNA 2: TGGTGGCTACGACGGGATT
B18: GCUCAUA (DNA:RNA)
RNA: B1 RNA with A25G, A26C, G28C, G29A, C31A
DNA 1: CAATCTGAATTCCGGTCTCCC
DNA 2: TGGTGGCTACGACGGGATT
B19: ACAAUGA (DNA:RNA)
RNA: B14 RNA with C25A, C28A, C30G, G31A
DNA 1: CAATCTGAATTCCGGTCTCCC
DNA 2: TGGTGGCTACGACGGGATT
B20: GGCCCGC (DNA:RNA)
RNA: B1 RNA with A25G, A26G, U27C, G28C, G29C, U30G
DNA 1: CAATCTGAATTCCGGTCTCCC
DNA 2: TGGTGGCTACGACGGGATT

Residue numbers refer to the chain shown, from its start. The list shows a part of the results.

This is an account of results in publication PMC9911399, “Two distinct binding modes provide the RNA-binding protein RbFox with extraordinary sequence specificity”.

The experiment has as its target T1, RBFOX1 RRM RbFoxmut (Fox-RRM*). The experiment is described as follows: EMSA; HiTS-Eq, 1 nM pool, 10 min; buffer printed only for the single-RNA assays: 10 mM Tris pH 7.5, 150 mM NaCl, 3.4 mM EDTA, 0.001% NP-40, 30 C. As to conditions: tags: His6 N-terminal (pET28a); label: 5' 32P. In a few lines:
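These values rest on relative association constants, computed from read-count changes of each RNA species versus the control reaction and normalised to the cognate motif. Reads came from free RNA recovered by 8% native PAGE after purified RbFox RRM (wild type or mutant) at increasing concentrations was equilibrated for 10 min in 50 µL with 1 nM of a 5′-radiolabelled pool with 7 randomized nucleotides and DNA-annealed flanks.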
As to B1, the binding signal is 0.1 KA relative to UGCAUGU.

B2: the binding signal is 0.189 KA relative to UGCAUGU.

With B3, the binding signal is 0.0901 KA relative to UGCAUGU.

For the molecule B4, the binding signal is 0.151 KA relative to UGCAUGU.

For the molecule B5, the binding signal is 0.121 KA relative to UGCAUGU.

Take B6: the binding signal is 0.139 KA relative to UGCAUGU.

On to B7, for which the binding signal is 0.112 KA relative to UGCAUGU.

Consider B8, for which the binding signal is 0.0691 KA relative to UGCAUGU.

As to B9, the binding signal is 0.103 KA relative to UGCAUGU.

B10: the binding signal is 0.143 KA relative to UGCAUGU.

Turning to B11, the binding signal was 0.0744 KA relative to UGCAUGU.

In the case of B12, the binding signal was 0.0405 KA relative to UGCAUGU.

Turning to B13, the binding signal was 0.0803 KA relative to UGCAUGU.

As to B14, the binding signal was 0.109 KA relative to UGCAUGU.

With B15, the binding signal was 0.056 KA relative to UGCAUGU.

With B16, the binding signal is 0.144 KA relative to UGCAUGU.

With B17, the binding signal is 0.0927 KA relative to UGCAUGU.

Consider B18, for which the binding signal is 0.0964 KA relative to UGCAUGU.

Regarding B19, the binding signal is 0.0966 KA relative to UGCAUGU.

Regarding B20, the binding signal was 0.108 KA relative to UGCAUGU.
